The campaign covered roughly 110,000 compounds. About 230 (0.21%) showed an effect of 50% or more. Some of the results follow.
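Note: 30 min substrate incubation versus DMSO and 10 µM JCP410 controls.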

The target in this experiment is DPAP1 (Plasmodium falciparum, UniProt Q8IIJ9). The experiment can be described thus: primary screen, percent inhibition; read by cleavage of a fluorogenic dipeptide substrate; higher = more effect of the substance. Details: species or system P. falciparum D10 trophozoite lysates; single well.
DPAP1, sequence (Q8IIJ9 whole entry, looked up): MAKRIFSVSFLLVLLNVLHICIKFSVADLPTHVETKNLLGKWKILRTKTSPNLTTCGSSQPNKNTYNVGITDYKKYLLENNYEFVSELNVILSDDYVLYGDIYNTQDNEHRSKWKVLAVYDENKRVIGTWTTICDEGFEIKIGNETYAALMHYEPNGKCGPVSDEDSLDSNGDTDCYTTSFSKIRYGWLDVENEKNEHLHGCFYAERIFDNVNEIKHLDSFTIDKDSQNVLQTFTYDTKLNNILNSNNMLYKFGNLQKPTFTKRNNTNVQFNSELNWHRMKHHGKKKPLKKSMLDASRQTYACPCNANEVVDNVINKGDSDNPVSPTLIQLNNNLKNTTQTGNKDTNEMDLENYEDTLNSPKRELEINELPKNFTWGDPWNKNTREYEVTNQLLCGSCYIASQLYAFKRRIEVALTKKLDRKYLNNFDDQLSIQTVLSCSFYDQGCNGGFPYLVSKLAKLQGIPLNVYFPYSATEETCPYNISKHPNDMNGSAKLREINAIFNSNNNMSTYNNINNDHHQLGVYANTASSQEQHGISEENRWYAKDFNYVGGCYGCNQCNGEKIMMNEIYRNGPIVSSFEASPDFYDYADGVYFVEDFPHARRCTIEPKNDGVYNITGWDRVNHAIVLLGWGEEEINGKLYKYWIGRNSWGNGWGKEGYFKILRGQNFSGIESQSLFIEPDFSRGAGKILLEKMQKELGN
Take `Cc1ccc(C(O)C(C)C(=O)O)cc1` (centres unmarked): the “% Inhibition @ 10 uM” value is listed as 0.00784%.

As for `COc1ccc(C(=O)Nc2ccc(C(C)C)cc2)cc1OC`, the “% Inhibition @ 10 uM” value is given as -0.771%.

Regarding `COc1ccc(OC)c(-c2nc3[nH]nc(C)n3n2)c1`, the “% Inhibition @ 10 uM” value is on record as -4.93%.

Regarding `CN(Cc1ccccc1)S(=O)(=O)c1cc(Cl)ccc1Cl`, the “% Inhibition @ 10 uM” value is reported as -3.04%.

Turning to `Cc1cc(O)c(C(=O)/C=C/c2ccsc2)c(=O)o1`, the “% Inhibition @ 10 uM” value was 3%.

Turning to `Cc1ccc(C23CC4CC(CC(CNC(=O)c5cc(Cl)cc(Cl)c5)(C4)C2)C3)cc1`, the “% Inhibition @ 10 uM” value was -5.41%.

Consider `CCCC1=C(C(=O)OCC)C(c2ccc(Cl)cc2Cl)C(C#N)=C(N)O1` (centres unmarked), for which the “% Inhibition @ 10 uM” value was found to be 1.48%.

Consider `CCc1nc(SC)ncc1C(=O)NCc1ccc(Cl)cc1`, for which the “% Inhibition @ 10 uM” value is listed as 1.6%.

In the case of `Sc1nc2ccccc2c2nc(CCc3c[nH]c4ccccc34)nn12`, the “% Inhibition @ 10 uM” value was 8.44%.

Take `CCOc1cccc(C(=O)Nc2cccc(NC(=O)c3cccc(Cl)c3)c2)c1`: the “% Inhibition @ 10 uM” value came to 9.65%.

Take `COc1ccc(C(=O)N2CCN(C(=O)c3cccc(F)c3)CC2)cc1`: the “% Inhibition @ 10 uM” value is recorded as -10.8%.

For the molecule `O=C(CSc1nc2ccsc2c(=O)n1Cc1ccccc1)NCc1ccccc1`, the “% Inhibition @ 10 uM” value is -6.44%.

`CS(=O)(=O)N(Cc1cc2ccccc2nc1O)C1CCCCC1`: the “% Inhibition @ 10 uM” value came out at 4.18%.

In the case of `CCOC(=O)C1=C(c2ccccc2)Nc2nc3ccccc3n2C1c1ccccc1` (centres unmarked), the “% Inhibition @ 10 uM” value stood at 5.12%.

On to `O=C(O)c1ccccc1NC(=O)C1CC=CCC1C(=O)O` (centres unmarked), for which the “% Inhibition @ 10 uM” value is listed as -5.14%.

As for `CCOC(=O)c1c(CN2CCOCC2)n(C)c2ccc(OC)c(S(=O)(=O)c3ccccc3)c12`, the “% Inhibition @ 10 uM” value was -3.41%.

Turning to `CCOc1cc(C2CC(=O)NC3=C2C(=O)CC(c2ccccc2Cl)C3)cc(Cl)c1O` (centres unmarked), the “% Inhibition @ 10 uM” value was determined as 5.32%.

With `COc1cccc(/C=C/C(=O)c2cccs2)c1OC`, the “% Inhibition @ 10 uM” value was 0.247%.

Turning to `Cc1ccc2oc(=O)c3cnn(CC(=O)NCCN4CCOCC4)c3c2c1`, the “% Inhibition @ 10 uM” value is 3.2%.

For the molecule `O=C(C1CC1c1ccccc1)N1CCN(C(c2ccccc2)c2ccccc2)CC1` (centres unmarked), the “% Inhibition @ 10 uM” value turned out to be 2.58%.

`CCCN(CCC)S(=O)(=O)c1csc(C(N)=O)c1`: the “% Inhibition @ 10 uM” value is given as -4.04%.

On to `O=C(NCCc1ccccc1)c1ccc(C(=O)NCCc2ccccc2)s1`, for which the “% Inhibition @ 10 uM” value was found to be 0.0719%.

Consider `Cc1ccccc1NC(=O)CSC1=C(C#N)C(c2cccs2)CC(=O)N1` (centres unmarked), for which the “% Inhibition @ 10 uM” value was -4.49%.

As for `CC(C)CC1NC(=O)CNC1=O` (centres unmarked), the “% Inhibition @ 10 uM” value amounted to 1.81%.

For the molecule `O=[N+]([O-])c1ccc(-c2ncccc2O)cc1`, the “% Inhibition @ 10 uM” value is on record as -5.5%.

`CCCNS(=O)(=O)c1csc(C(N)=O)c1`: the “% Inhibition @ 10 uM” value was -1.68%.

Regarding `O=C1C=CCN1c1ccc([N+](=O)[O-])cc1`, the “% Inhibition @ 10 uM” value was -0.415%.

Consider `CCc1nc(SCC(=O)Nc2ccccc2)c(C#N)cc1C`, for which the “% Inhibition @ 10 uM” value turned out to be 4.08%.

Regarding `CC(C)c1ccc(NC(=O)c2ccccc2[N+](=O)[O-])cc1`, the “% Inhibition @ 10 uM” value was -2%.

Take `CCC(=O)Nc1ccc(S(=O)(=O)N2CCc3ccccc32)cc1`: the “% Inhibition @ 10 uM” value stood at 0.709%.

In the case of `O=C1OC(OC2CCCCC2)(c2ccccc2)c2ccccc21` (centres unmarked), the “% Inhibition @ 10 uM” value was -0.597%.

On to `CCN1CCCC1CNC(=O)c1nnc(Cc2ccccc2OC)o1` (centres unmarked), for which the “% Inhibition @ 10 uM” value is given as -4.15%.

For `CCOc1cc(-c2cc(N)[nH]n2)cc(OCC)c1OCC`, the “% Inhibition @ 10 uM” value is -2.88%.

`COc1cccc(C2=NOC(C(=O)N3CCC4(CC3)OCCO4)C2)c1OC` (centres unmarked): the “% Inhibition @ 10 uM” value is 12.8%.

As to `Brc1cccc(CN2CCN(Cc3ccco3)CC2)c1`, the “% Inhibition @ 10 uM” value is given as 2.38%.

Consider `CC(=O)N(C)c1ccc(NC(=O)COc2ccccc2)cc1`, for which the “% Inhibition @ 10 uM” value is given as -9.66%.

As to `CCCCC(=O)Nc1ccccc1OCC`, the “% Inhibition @ 10 uM” value is 6.23%.

`CC(C)(CNC(=O)Cc1ccc(Cl)cc1)CNC(=O)Cc1ccc(Cl)cc1`: the “% Inhibition @ 10 uM” value was 0.331%.

For the molecule `CC(NC(=O)c1cccnc1)c1cc2c(cc1Br)OCCO2` (centres unmarked), the “% Inhibition @ 10 uM” value is recorded as 0.13%.

Take `CCCCN1C(=O)C2Cc3c([nH]c4ccccc34)C(c3cccc(OC)c3)N2C1=O` (centres unmarked): the “% Inhibition @ 10 uM” value is reported as 6.43%.

As to `Cc1cccc(N2C(=O)C3C(C2=O)C2C=CC3C23CC3)c1` (centres unmarked), the “% Inhibition @ 10 uM” value is 1.96%.

With `Cn1nc(CC(=O)Nc2ncc(Br)s2)c2ccccc2c1=O`, the “% Inhibition @ 10 uM” value was 2.8%.

In the case of `COc1cccc(-n2c(SCC(=O)NCc3ccco3)nc3nnc(C)c-3c2N)c1`, the “% Inhibition @ 10 uM” value was found to be 4.35%.

With `Cc1noc2ncnc(N3CCCC(C(=O)NCCC4=CCCCC4)C3)c12` (centres unmarked), the “% Inhibition @ 10 uM” value is -1.88%.

Take `Oc1ncnc2sc3c(c12)CCCC3`: the “% Inhibition @ 10 uM” value is given as -7.25%.

`O=C(O)C1CCCCC1C(=O)Nc1nc(-c2ccc(Br)cc2)cs1` (centres unmarked): the “% Inhibition @ 10 uM” value is reported as -3.71%.

On to `Cc1ccc2c(c1)C=CC(C#N)N2C(=O)c1ccccc1` (centres unmarked), for which the “% Inhibition @ 10 uM” value was 6.98%.

Consider `CCCn1c2ccccc2c2cnn(CC(=O)NCc3ccc(CN4CCCCC4CC)o3)c(=O)c21` (centres unmarked), for which the “% Inhibition @ 10 uM” value is 6.56%.

Regarding `COc1cccc(C2C3=C(O)CC(C)(C)CC3=NC(C)=C2C(=O)Nc2ccccc2C(F)(F)F)c1` (centres unmarked), the “% Inhibition @ 10 uM” value worked out at 2.38%.

For `c1ccc(Cn2ncc3ccccc32)cc1`, the “% Inhibition @ 10 uM” value is -3.38%.

`Cc1cccc(C(=O)Nc2ccc(C#N)cc2)c1`: the “% Inhibition @ 10 uM” value is recorded as 0.605%.

In the case of `COc1ccc(CN2COc3c(Cl)cc4c(C)c(C)c(=O)oc4c3C2)cc1`, the “% Inhibition @ 10 uM” value is reported as -0.808%.

On to `CSc1ccc(CCNC(=O)CCc2nnc3ccc(N4CCC(C)CC4)nn23)cc1`, for which the “% Inhibition @ 10 uM” value is -5.85%.

Consider `Cc1cc2c(=O)oc(-c3cccc(Br)c3)nc2s1`, for which the “% Inhibition @ 10 uM” value is on record as -3.28%.

`NC(=O)NC(c1ccc(Cl)cc1)c1ccccc1Cl` (centres unmarked): the “% Inhibition @ 10 uM” value was determined as 1.84%.

In the case of `O=S(=O)(Nc1cc(Cl)cc(Cl)c1)c1cc(Cl)ccc1Cl`, the “% Inhibition @ 10 uM” value is -4.4%.

On to `Cc1c(C(=O)N2CCCC(C)C2)sc2ncn(CC(=O)N3CC(C)CC(C)C3)c(=O)c12` (centres unmarked), for which the “% Inhibition @ 10 uM” value is given as -0.458%.

`COc1ccc(-c2cc(C(F)(F)F)nc(SCC(=O)N(C)Cc3cn(C)nc3C)n2)cc1OC`: the “% Inhibition @ 10 uM” value is recorded as 47.7%.

In the case of `O=C(NCCc1c[nH]c2ccccc12)C(c1ccccc1)N1Cc2ccccc2C1=O` (centres unmarked), the “% Inhibition @ 10 uM” value is -2.13%.

In the case of `Cc1nn(CC(=O)N2CCc3ccccc3C2)c(=O)c2nn(-c3ccccc3)c(C)c12`, the “% Inhibition @ 10 uM” value was determined as 0.931%.

For the molecule `CCN1CCN(Cc2nc3c(c(=O)n(C)c(=O)n3C)n2Cc2ccccc2)CC1`, the “% Inhibition @ 10 uM” value was 1.23%.

Take `O=C(Nc1ccc([N+](=O)[O-])cc1)c1cccc(S(=O)(=O)N2CCOCC2)c1`: the “% Inhibition @ 10 uM” value was -5.41%.

With `NC(c1ccccc1)P(=O)(O)C(N)c1ccccc1` (centres unmarked), the “% Inhibition @ 10 uM” value is recorded as -2.18%.

As for `N#CCNC(=O)[C@H](CCc1ccccc1)NC(=O)c1ccccc1`, the “% Inhibition @ 10 uM” value is reported as -1.83%.

Turning to `CCS(=O)(=O)C1=NSC2=NC(=O)/C(=C\c3cc(C)n(-c4ccccc4OC)c3C)C(=N)N21`, the “% Inhibition @ 10 uM” value is given as -1.58%.

The record behind these values is article PMC6919601, “Identification of Plasmodium dipeptidyl aminopeptidase allosteric inhibitors by high throughput screening” (PLoS ONE, 2019).
